According to article PMC7819943, “Rice protein-binding microarrays: a tool to detect cis-acting elements near promoter regions in rice”:
The other results are listed elsewhere or left out.

Each sequence was assayed against T1, OsWOX13 (Oryza sativa, UniProt Q5QMM3 1-267) (assay: protein-binding microarray (RPBM); PBS, 2% BSA, 51.3 ng/ul salmon testes DNA, 50 uM zinc acetate, 200 nM TF, 25 C, 1 h; high values mean tight binding). Conditions: protein: recombinant; tags: N-terminal polyhistidine and DsRed monomer fusion (pET32a); label: CyDye5-dUTP incorporated in the synthesized complementary strand; 3' TTTTT single-stranded linker to array surface; dsDNA, one strand shown.
T1 sequence: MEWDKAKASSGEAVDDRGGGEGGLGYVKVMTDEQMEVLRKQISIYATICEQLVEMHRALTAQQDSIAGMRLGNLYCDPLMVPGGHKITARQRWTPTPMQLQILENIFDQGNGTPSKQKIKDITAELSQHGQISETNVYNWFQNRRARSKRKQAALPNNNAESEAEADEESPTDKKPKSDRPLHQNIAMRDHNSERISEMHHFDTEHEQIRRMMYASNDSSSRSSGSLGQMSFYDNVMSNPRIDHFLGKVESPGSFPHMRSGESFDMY
How it was run: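 The binding signal is fluorescence intensity per array feature (arbitrary units). Readings came from an Axon 4000B scanner after a washed, 2% BSA-blocked, double-stranded custom Agilent array had been incubated for 1 h at 25 °C with 200 nM protein and 50 µM zinc acetate. The protein was a Ni–NTA-purified transcription factor fused N-terminally to polyhistidine and DsRed, expressed in E. coli BL21-CodonPlus.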

Going from “GTATAATCAGTTTGTAACAGAACTATCACAACTCACACGGCGGAGTCACCTAGTGCAG” to “GGTCTATAATTAGCAATAACAACATGCTCCAAAGTGTAGTCGGAGTCACCTAGTGCAG”, the binding signal rises from 12500 fluorescence intensity (a.u.) to 16400 fluorescence intensity (a.u.).

First: GGTGGACGAGATTGGAGCGGCAAAGAAGGGGTGAAGAGGTCGGAGTCACCTAGTGCAG
Second: AGTCATTTTCCCCTTAATTTGTTGGAGTATGCTATCCAAGCGGAGTCACCTAGTGCAG
The binding signal of the first is lower: 3460 fluorescence intensity (a.u.) for the first, 10100 fluorescence intensity (a.u.) for the second.

Going from “ATAATTGAAACGATATAAGGAAATACTCGTATATGAAGTACGGAGTCACCTAGTGCAG” to “TTTAGACATAATTAAAATTTCGGATTAAAAGAATAAGGAACGGAGTCACCTAGTGCAG”, the binding signal rises from 19500 fluorescence intensity (a.u.) to 24200 fluorescence intensity (a.u.).

Going from “AAACGATACATGATTTAGGCCGTGATGAATCTTGGCATGCCGGAGTCACCTAGTGCAG” to “GTCTCTAATCTACGTTAATCAGCAGAAATCAAACTTGACACGGAGTCACCTAGTGCAG”, the binding signal rises from 4590 fluorescence intensity (a.u.) to 15400 fluorescence intensity (a.u.).

Compared with “AACTAAATTTGGGAGATCGAGAAAGATTCGGCCAGATTTGCGGAGTCACCTAGTGCAG”, “GTTAATTGTCATCGATTTCCCGATTCTTTTGTCAAATTTACGGAGTCACCTAGTGCAG” is higher in binding signal: 4390 fluorescence intensity (a.u.) for the first, 15700 fluorescence intensity (a.u.) for the second.

First: ATTAACTGGTACCTCATCGATTGAACATATATATGCATTACGGAGTCACCTAGTGCAG
Second: GCTTATTGGCTTATATGATTTATAAGCCAGTGGATTTAATCGGAGTCACCTAGTGCAG
The binding signal of the first is higher: 17700 fluorescence intensity (a.u.) for the first, 7500 fluorescence intensity (a.u.) for the second.

First: CATCTGATGGAGATGTGTTCCATAACAAAGTTGTAGAGCTCGGAGTCACCTAGTGCAG
Second: GCCTAATTACGCCATGATTTGATAATGTGGTGCTACAGTACGGAGTCACCTAGTGCAG
The binding signal of the first is lower: 4270 fluorescence intensity (a.u.) for the first, 41800 fluorescence intensity (a.u.) for the second.

Going from “TCTGACCTGAAAGTCTCAATCAGACAGCTTTCGAAAAGGACGGAGTCACCTAGTGCAG” to “AATAACGTTATAATTATAGTGGCACGAGTTCAAATAGGTGCGGAGTCACCTAGTGCAG”, the binding signal rises from 4260 fluorescence intensity (a.u.) to 5240 fluorescence intensity (a.u.).

Compared with “AATAACTTTTAAATATAATAAAACTGAAATGTGAATGAAGCGGAGTCACCTAGTGCAG”, “TCAAAATTTTATAAAATAGATGTAATATTTATATGATGAACGGAGTCACCTAGTGCAG” is higher in binding signal: 4750 fluorescence intensity (a.u.) for the first, 5790 fluorescence intensity (a.u.) for the second.

Compared with “ATCAAATAAAGCCGTTAATTTCAGAAAATTTTCGTGGGCTCGGAGTCACCTAGTGCAG”, “TTGGAATAAGGCAGTGATTGGTGGCGCACACTGCACACACCGGAGTCACCTAGTGCAG” is higher in binding signal: 4190 fluorescence intensity (a.u.) for the first, 13200 fluorescence intensity (a.u.) for the second.

Going from “AGTACAATCAATCTGACGAAATTGCTCATTTTGGTCGCTACGGAGTCACCTAGTGCAG” to “ACTTTGATCAAAACTCCTTATAATTTGAAAGGTGGGAGTACGGAGTCACCTAGTGCAG”, the binding signal falls from 17200 fluorescence intensity (a.u.) to 6720 fluorescence intensity (a.u.).

Going from “ATTTTGATTAATCTCGTATTGGGTTCTTATATGGAAACTTCGGAGTCACCTAGTGCAG” to “TGTAAATTGGAAATTGTAAAACTTACAGATGATAAACAAGCGGAGTCACCTAGTGCAG”, the binding signal falls from 33500 fluorescence intensity (a.u.) to 23300 fluorescence intensity (a.u.).

First: CTTTCTTCTTTTGTCCCTTTTGATTTGATCACCGTATTCACGGAGTCACCTAGTGCAG
Second: GCTGACGATTTGATTAACCCAACCCGCTCCGACACGTGCCCGGAGTCACCTAGTGCAG
The binding signal of the first is lower: 3170 fluorescence intensity (a.u.) for the first, 29600 fluorescence intensity (a.u.) for the second.

Compared with “GCTAAATTGTAAAACTTGTGCTCGATGATGGTAAACCGGACGGAGTCACCTAGTGCAG”, “CAAGATCAATTGACAATTCAGATATAAATTAAGATAGTACCGGAGTCACCTAGTGCAG” is lower in binding signal: 10800 fluorescence intensity (a.u.) for the first, 7340 fluorescence intensity (a.u.) for the second.

Compared with “AATCTGTATCACAAATTTCTAATTAAACCGACGAATCAATCGGAGTCACCTAGTGCAG”, “CTTAATTGATCTTATCCATGGAAACAGAAGAATGGCTATGCGGAGTCACCTAGTGCAG” is higher in binding signal: 3690 fluorescence intensity (a.u.) for the first, 36200 fluorescence intensity (a.u.) for the second.

Going from “ATAACTAATGGAATGAAATGTAAAAGTCGAAACTCTAGCTCGGAGTCACCTAGTGCAG” to “ATCTTGTGTTAATTTGCATGAGGAGAGCTTACCTTCCATGCGGAGTCACCTAGTGCAG”, the binding signal falls from 8840 fluorescence intensity (a.u.) to 3780 fluorescence intensity (a.u.).

First: ATCAGCGAAAATTAGAATTTTCAACCTTAAATTTGGAGTCCGGAGTCACCTAGTGCAG
Second: AGACAAATAAACAAATTGCAAAACTGGGCGTTTTGTGTTACGGAGTCACCTAGTGCAG
The binding signal of the first is lower: 3880 fluorescence intensity (a.u.) for the first, 4570 fluorescence intensity (a.u.) for the second.

Compared with “TAAATTGGCTATTACATTAGTTATAAATGATTTGGAGCTACGGAGTCACCTAGTGCAG”, “AATTCATTTACAGTCAATCTAATAGTTAATTCATACAATACGGAGTCACCTAGTGCAG” is lower in binding signal: 34400 fluorescence intensity (a.u.) for the first, 15900 fluorescence intensity (a.u.) for the second.

Compared with “GTAATTAATTAACAACTCACCGTCCTTATATAATTGTTTTCGGAGTCACCTAGTGCAG”, “ACTTAAACTTGATCACTAAACAAACGTGTCAGATTACACGCGGAGTCACCTAGTGCAG” is lower in binding signal: 35500 fluorescence intensity (a.u.) for the first, 4040 fluorescence intensity (a.u.) for the second.

Compared with “GAATATTAAACTTCCAAAACAGGTCCAAAGCTATGTTCTTCGGAGTCACCTAGTGCAG”, “AAGTAATTAATCTAACAAATGCCTCAATTAACATTGGTTACGGAGTCACCTAGTGCAG” is lower in binding signal: 57500 fluorescence intensity (a.u.) for the first, 33500 fluorescence intensity (a.u.) for the second.

Going from “TTAAATCTAAATTGTTCTCACATGTATGCCATATGTAGTACGGAGTCACCTAGTGCAG” to “TCTGCTAATTTATCAGATAATCACTATTAGTTTTATTCCGCGGAGTCACCTAGTGCAG”, the binding signal rises from 4880 fluorescence intensity (a.u.) to 27400 fluorescence intensity (a.u.).
